Measurements taken from PubChem BioAssay AID504706 (National Center for Advancing Translational Sciences (NCATS), 2011).
The campaign covered roughly 320,000 compounds. About 200 (0.062%) were called active. The inconclusive results got no clear call from the source; some entries with a clear call stand among them for comparison. Calls follow the shape of the dose curve; as a rule, active = well fitted activation curve with a large enough effect; inconclusive = small, poorly fitted or top-dose-only effect; inactive = no such curve, though single readings can be large or run the other way. No potency is given beside an inconclusive call; the fits are too rough.

test: qHTS assay for re-activators of p53 using a Luc reporter; details: H1299 p53-A138V BP100-luciferase reporter, luminescence, 24 h; series mostly up to 92.2 µM; activity change, positive = activation: at the top concentration; also: nearly all actives have a fitted effect of over 45% in size; as to activity change, positive = activation: % of control where 0% means no effect
How it was run: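 p53-null H1299 cells stably carrying temperature-sensitive p53-A138V and a BP100-luciferase reporter were pinned with compounds (4-point, 1:5 series) and held 24 hrs at 37 deg C. Luminescence was read 10 min after detection reagent.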
Potency is read from the fitted curve at half-maximal effect; tags tell the direction and shape of the fitted curve.

Question: Which “activity change, positive = activation” value does the source give for CCCn1c(N)c(C(=O)CSc2nnc(-c3ccoc3C)n2C)c(=O)n(C)c1=O here?
Answer: inactive: 5.34%

Question: Which Potency does the source give for O=C(Nc1ccc2c(c1)OCO2)c1noc2c1CCCC2 here?
Answer: inconclusive [activator, full curve, poor fit]

Question: Which Potency does the source give for Cc1ccc(C)c(NC(=O)CCC(=O)N/N=C/c2ccc[nH]2)c1 here?
Answer: inconclusive [activator, full curve, poor fit]

Question: For Cc1ccc2oc(=O)c(/C=C(\O)c3ccccc3)nc2c1, which Potency is on record?
Answer: inconclusive [activator, partial curve, poor fit]

Question: For O=C(Nc1cccc(C(F)(F)F)c1)c1cc(-c2ccc(F)cc2)on1, which Potency is on record?
Answer: inconclusive [activator, single point]

Question: With O=C(C1CCC1)N1CCc2cc(S(=O)(=O)N3CCN(c4ccccn4)CC3)ccc21 as the molecule, how does the “activity change, positive = activation” value read?
Answer: inactive: -9.57%

Question: For CCN(CC(=O)Nc1ccc2c(c1)OCCO2)C(=O)c1ccc(CS(C)(=O)=O)cc1, which Potency is on record?
Answer: inconclusive [activator, partial curve, poor fit]

Question: For CCCNC(=O)C(Cc1ccccc1C)NC(=O)c1ccc(C(F)(F)F)cc1 (centres undefined), which Potency is on record?
Answer: inconclusive [activator, single point]

Question: Which Potency does the source give for CC1=NN(C(N)=S)C(=O)C1N=Nc1cccc(Cl)c1C (centres undefined) here?
Answer: inconclusive [activator, partial curve, poor fit]

Question: With CC(=O)C(Sc1nn(C)c(=S)s1)C(=O)Nc1ccccc1 (centres undefined) as the molecule, how does the Potency read?
Answer: inconclusive [activator, partial curve, poor fit]

Question: For O=c1oc(CCO)cc2ccc(C#Cc3ccsc3)cc12, which Potency is on record?
Answer: inconclusive [activator, full curve, poor fit]

Question: With COc1cc(SC)ccc1C(=O)Nc1ccccc1C#N as the molecule, how does the Potency read?
Answer: inconclusive [activator, single point]

Question: For O=C(CCNC(=O)c1ccco1)Nc1nc(-c2ccccc2)cs1, which Potency is on record?
Answer: inconclusive [activator, partial curve, poor fit]

Question: For c1cncc(-c2nnc(-c3cccs3)o2)c1, which “activity change, positive = activation” value is on record?
Answer: inactive: 8.17%

Question: With COc1nc(C)nc2c1sc1nc3c(cc12)COC(C)(C)C3 as the molecule, how does the Potency read?
Answer: inconclusive [activator, full curve, poor fit]

Question: For O=C(Nc1ccncc1)c1ccc(F)cc1, which “activity change, positive = activation” value is on record?
Answer: inactive: -1.28%

Question: Which “activity change, positive = activation” value does the source give for CCCC(=O)Nc1nc(C)c(C(C)=O)s1 here?
Answer: inactive: -0.0995%

Question: Which “activity change, positive = activation” value does the source give for CCOC(=O)c1sc2nc(C)nc(SCC(=O)N(C)C3CCS(=O)(=O)C3)c2c1C (centres undefined) here?
Answer: inactive: 0.0137%

Question: Which “activity change, positive = activation” value does the source give for CN(C)CCCN(C(=O)c1ccc(S(=O)(=O)N(C)C2CCCCC2)cc1)c1nc2ccc(F)cc2s1 here?
Answer: inactive: 9.84%

Question: Which Potency does the source give for COc1ccc(Br)cc1-c1noc(-c2ccccc2)n1 here?
Answer: inconclusive [activator, partial curve, poor fit]

Question: With Cc1cc(-n2c(C)cc(C(=O)CSc3ncnc4ccccc34)c2C)no1 as the molecule, how does the “activity change, positive = activation” value read?
Answer: inactive: 19.6%

Question: For Cc1ccccc1C(=O)Nc1nnc(S(=O)(=O)N(C)Cc2ccco2)s1, which Potency is on record?
Answer: inconclusive [activator, single point]

Question: For O=C(NC1CCCC1)c1cc(-c2ccc(Cl)cc2)on1, which Potency is on record?
Answer: inconclusive [activator, full curve, poor fit]

Question: With CCn1cnc2c(Nc3cccc(Cl)c3)nc(C#N)nc21 as the molecule, how does the Potency read?
Answer: inconclusive [activator, full curve]

Question: Which “activity change, positive = activation” value does the source give for O=C(CSc1nnc(-c2ccc(Br)cc2)o1)Nc1cccc(C(=O)O)c1 here?
Answer: inactive: 1.74%

Question: For COCCn1c(C)cc(C(=O)CN2C(=O)NC3(CCCCCC3)C2=O)c1C, which Potency is on record?
Answer: inconclusive [activator, partial curve, poor fit]

Question: Which Potency does the source give for c1ccc(-n2cnc3cc(NCc4ccccn4)ccc32)cc1 here?
Answer: inconclusive [activator, partial curve, poor fit]

Question: Which Potency does the source give for Cc1cc(=O)[nH]c(SC/C=C/c2ccccc2)n1 here?
Answer: inconclusive [activator, single point]

Question: For O=C(N/N=C/c1cn(-c2cccs2)nc1-c1ccccc1)c1ccccc1Br, which Potency is on record?
Answer: inconclusive [activator, partial curve, poor fit]

Question: Which “activity change, positive = activation” value does the source give for COc1ccc(CN2CCC(n3nccc3NC(=O)c3ccc4c(c3)OCO4)CC2)cc1C here?
Answer: inactive: 17.3%

Question: With COC(=O)c1oc2ccccc2c1NC(=O)/C=C/C(=O)O as the molecule, how does the “activity change, positive = activation” value read?
Answer: inactive: 3.97%

Question: With C[n+]1c(/C=C/c2ccc3c(c2)OCO3)ccc2ccccc21 as the molecule, how does the Potency read?
Answer: inconclusive [activator, partial curve, poor fit]

Question: Which Potency does the source give for O=C(COC(=O)c1cc(-c2ccc(Cl)s2)nc2ccccc12)NCc1ccco1 here?
Answer: inconclusive [activator, single point]

Question: For CC(C)Cc1csc(NC(=O)c2ccc(Br)cc2)c1C(=O)O, which Potency is on record?
Answer: inconclusive [activator, single point]

Question: Which “activity change, positive = activation” value does the source give for CCOC(=O)c1c(NC(=O)C2CCCO2)sc(C(N)=O)c1C (centres undefined) here?
Answer: inactive: -7.22%

Question: With COc1cccc(NC(=O)c2cccc(OC)c2OC)c1 as the molecule, how does the Potency read?
Answer: inconclusive [activator, partial curve, poor fit]

Question: Which “activity change, positive = activation” value does the source give for Cc1ccnc(NS(=O)(=O)c2ccc(NS(=O)(=O)c3cc(Cl)ccc3Cl)cc2)n1 here?
Answer: inactive: -0.654%

Question: With CN(Cc1cccnc1)C(=O)c1ccc2nc(Cc3ccccc3F)oc2c1 as the molecule, how does the Potency read?
Answer: inconclusive [activator, partial curve, poor fit]

Question: Which “activity change, positive = activation” value does the source give for C/C(=N\NC(=O)c1nnn(-c2nonc2N)c1CN(C)c1ccccc1)c1ccc(O)cc1 here?
Answer: inactive: -4.02%

Question: With COc1ccc2nc(/C=N/NC(=O)CCCCCNC(=O)OC(C)(C)C)ccc2c1 as the molecule, how does the “activity change, positive = activation” value read?
Answer: inactive: 5.48%

Question: Which “activity change, positive = activation” value does the source give for CC1(C)Cc2nc3sc(C(=O)NCCCO)c(N)c3cc2CS1 here?
Answer: inactive: -10.9%

Question: With COc1ccc(-c2nc(-c3ccc(Br)o3)no2)cc1OC as the molecule, how does the “activity change, positive = activation” value read?
Answer: inactive: 1.78%

Question: With CCOC(=O)N1CCC(NC(=O)CSCc2nc(-c3ccccc3Cl)oc2C)CC1 as the molecule, how does the “activity change, positive = activation” value read?
Answer: inactive: -1.75%

Question: Which Potency does the source give for O=C(CSCc1ccco1)c1cccs1 here?
Answer: inconclusive [activator, full curve, poor fit]

Question: With C=CCc1cccc(/C=N/NC(=O)CCCNc2ccc(C)cc2)c1O as the molecule, how does the Potency read?
Answer: inconclusive [activator, single point]

Question: With COc1cc(OC)cc(C(=O)NNC(=O)c2ccc3ccccc3n2)c1 as the molecule, how does the Potency read?
Answer: inconclusive [activator, single point]

Question: For CC(=O)c1c(C)[nH]c(C(=O)NCCc2ccccc2)c1C, which Potency is on record?
Answer: inconclusive [activator, partial curve, poor fit]

Question: For Cc1ccccc1-c1nnc(-c2ccccc2)o1, which Potency is on record?
Answer: inconclusive [activator, partial curve, poor fit]

Question: Which Potency does the source give for O=C(/C(=N/N=C/c1ccc(O)c(O)c1)c1ccccc1)c1ccccc1 here?
Answer: inconclusive [activator, partial curve, poor fit]

Question: Which “activity change, positive = activation” value does the source give for CC(/C=C1\SC(=S)N(CC(=O)N2CCN(c3ccccc3)CC2)C1=O)=C\c1ccccc1 here?
Answer: inactive: 6.24%

Question: Which “activity change, positive = activation” value does the source give for O=C(NC1CCCCCCC1)c1cc(F)c(F)cc1Cl here?
Answer: inactive: 6.04%

Question: For O=C(CSc1nnc(-c2ccccc2)o1)N1CCN(c2ccccc2)CC1, which Potency is on record?
Answer: inconclusive [activator, single point]

Question: Which Potency does the source give for O=C(NNC(=O)c1ccccc1OCc1ccccc1)c1ccccc1F here?
Answer: inconclusive [activator, single point]

Question: For CCOC(=O)c1cnc2ccc(C)cc2c1Sc1ccc(F)cc1, which Potency is on record?
Answer: inconclusive [activator, single point]

Question: Which Potency does the source give for Cc1ccccc1C(=O)O/N=C(\N)c1ccncc1 here?
Answer: inconclusive [activator, partial curve, poor fit]

Question: For CCOc1ccc(Nc2nc3ccccc3c(=O)s2)cc1, which “activity change, positive = activation” value is on record?
Answer: inactive: 1.3%

Question: Which Potency does the source give for Cc1ccc(/C=N/NC(=O)c2cccs2)o1 here?
Answer: inconclusive [activator, full curve, poor fit]

Question: With O=C(COc1cccc(Cl)c1)Nc1ccc2c(c1)CCC2 as the molecule, how does the Potency read?
Answer: inconclusive [activator, partial curve, poor fit]

Question: Which Potency does the source give for Cc1cc(C)c(S(=O)(=O)N/N=C/c2ccc3c(c2)OCO3)c(C)c1 here?
Answer: inconclusive [activator, single point]

Question: For O=C(/C=C/c1ccc(O)cc1)c1ccc(O)cc1O, which Potency is on record?
Answer: inconclusive [activator, partial curve, poor fit]

Question: With COc1ccc(CNc2oc(-c3ccccc3)nc2C#N)cc1 as the molecule, how does the Potency read?
Answer: inconclusive [activator, single point]

Question: For COc1ccc(/C=C(\NC(=O)c2ccc(OC)cc2)C(=O)N2CCCCC2)cc1, which Potency is on record?
Answer: inconclusive [activator, single point]

Question: For O=C(Nc1nc(-c2ccccc2)cs1)c1ccccc1NS(=O)(=O)c1ccc(F)cc1, which Potency is on record?
Answer: inconclusive [activator, single point]

Question: With COC(C(=O)Nc1ccccc1C(=O)N1CCOCC1)c1ccccc1 (centres undefined) as the molecule, how does the Potency read?
Answer: inconclusive [activator, single point]

Question: Which Potency does the source give for CC(=O)Oc1ccc2cc(-c3ccccc3)c(=O)oc2c1 here?
Answer: inconclusive [activator, full curve, poor fit]

Question: For CCCC(=O)Nc1ccc(N2CCCCC2)cc1, which Potency is on record?
Answer: inconclusive [activator, partial curve, poor fit]

Question: For c1ccc(-c2ccc(-n3ccnc3)cc2)cc1, which Potency is on record?
Answer: inconclusive [activator, partial curve, poor fit]

Question: With CCOc1ccc2[nH]cc(C(=O)N3CCN(CC)CC3)c(=O)c2c1 as the molecule, how does the Potency read?
Answer: inconclusive [activator, full curve, poor fit]

Question: For CCOc1ccc2c(c1)S/C(=C\c1cccs1)C(=O)N2, which Potency is on record?
Answer: inconclusive [activator, full curve, poor fit]
